Experimental data published in the supplement of paper PMC7238544.
Where a name gives a salt, the structure may show the parent alone. ± gives the standard deviation of the averaged measurements. Some of the results follow.

How the values were obtained:
Conditions in all cases: priming compound concentration 100 µM
hAMSC donor 1 [1] = assay: Hoechst total cell count ratio vs vehicle control; higher = more cells (less toxicity)
hAMSC donor 2 [2] = assay: as above
hAMSC donor 1 [3] = assay: transgenic luciferase activity (RLU/mg protein) fold change vs vehicle control (ratio); higher = more transgene expression
hAMSC donor 2 [4] = assay: as above
hAMSC donor 1 [5] = assay: transfection efficiency (EGFP+ cells / Hoechst count) fold change vs vehicle control (ratio); hAMSC are human adipose-derived mesenchymal stem cells given an EGFP-luciferase plasmid by lipofection; higher = enhanced transfection
hAMSC donor 2 [6] = assay: as above
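For Hoechst total cell count ratio vs vehicle control in this document: compound added 30 min before Lipofectamine 3000 lipoplex delivery, triplicate-well means expressed against DMSO vehicle control wells of the same 96-well plate.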
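For transfection efficiency (EGFP+ cells / Hoechst count) fold change vs vehicle control in this document: compounds added 30 min before Lipofectamine 3000 lipoplex transfection, triplicate means relative to DMSO vehicle wells on the same plate, luciferase RLU normalized to BCA total protein.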
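For transgenic luciferase activity (RLU/mg protein) fold change vs vehicle control in this document: compounds in DMSO added 30 min before Lipofectamine 3000 transfection of pEGFP-Luc in 96-well plates, values are means of triplicate wells over DMSO vehicle wells on the same plate.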

Structure (SMILES)	Hoechst total cell count ratio (hAMSC donor 1 [1])	Hoechst total cell count ratio (hAMSC donor 2 [2])	transgenic luciferase activity (hAMSC donor 1 [3])	transgenic luciferase activity (hAMSC donor 2 [4])	transfection efficiency (hAMSC donor 1 [5])	transfection efficiency (hAMSC donor 2 [6])
C[C@H]1O[C@@H](O[C@H]2[C@@H](O)C[C@H](O[C@H]3[C@@H](O)C[C@H](O[C@H]4CC[C@@]5(C)[C@H](CC[C@@H]6[C@@H]5C[C@@H](O)[C@]5(C)[C@@H](C7=CC(=O)OC7)CC[C@]65O)C4)O[C@@H]3C)O[C@@H]2C)C[C@H](O)[C@@H]1O [Digoxin]	0.268 ± 0.024	0.29 ± 0.015	0.322 ± 0.29	0.00326 ± 0.00031	0.321 ± 0.23	0.0998 ± 0.02
C[C@]12CC[C@@H]3c4ccc(OS(=O)(=O)O)cc4CC[C@H]3[C@@H]1CCC2=O [Estrone 3-sulfate sodium salt]	1.15 ± 0.11	1.42 ± 0.089	0.942 ± 0.56	0.919 ± 0.12	0.697 ± 0.091	1.06 ± 0.18
CC(=O)NS(=O)(=O)c1ccc(N)cc1 [Sulfacetamide]	0.993 ± 0.1	1.01 ± 0.19	1.13 ± 0.24	0.67 ± 0.072	1.48 ± 0.018	1.99 ± 0.43
CCCc1nc2c(C)cc(-c3nc4ccccc4n3C)cc2n1Cc1ccc(-c2ccccc2C(=O)O)cc1 [Telmisartan]	1.27 ± 0.17	1.15 ± 0.15	0.774 ± 0.029	0.923 ± 0.051	1.07 ± 0.17	0.858 ± 0.035
Cc1nc2n(c(=O)c1CCN1CCC(c3noc4cc(F)ccc34)CC1)CCCC2 [Risperidone]	1.72 ± 0.12	1.64 ± 0.24	0.452 ± 0.12	1.01 ± 0.36	0.596 ± 0.21	0.626 ± 0.041
Cc1nc2ccccn2c(=O)c1CCN1CCC(C(=O)c2ccc(F)cc2)CC1 [Pirenperone]	1.44 ± 0.17	1.16 ± 0.14	0.353 ± 0.15	0.551 ± 0.26	0.912 ± 0.033	0.872 ± 0.14
O=C(c1ccccc1)c1ccc2n1CCC2C(=O)O (stereo not drawn) [Ketorolac tromethamine]	1.12 ± 0.13	1.452 ± 0.01	0.602 ± 0.14	0.718 ± 0.06	0.866 ± 0.18	0.777 ± 0.09
CO[C@@]1(NC(=O)Cc2cccs2)C(=O)N2C(C(=O)O)=C(COC(N)=O)CS[C@@H]21 [Cefoxitin sodium]	1.22 ± 0.061	1.05 ± 0.27	0.874 ± 0.53	0.648 ± 0.14	0.705 ± 0.32	1.78 ± 0.38
COCCCC/C(=N\OCCN)c1ccc(C(F)(F)F)cc1 [Fluvoxamine maleate]	0.927 ± 0.15	0.738 ± 0.027	2.11 ± 0.57	1.34 ± 0.56	0.914 ± 0.24	1.02 ± 0.14
c1ccc(-c2ccc(C(c3ccccc3)n3ccnc3)cc2)cc1 (stereo not drawn) [Bifonazole]	0.603 ± 0.11	0.627 ± 0.15	0.205 ± 0.18	1.45 ± 0.28	0.735 ± 0.05	1.17 ± 0.22
CN(CCCN1c2ccccc2CCc2ccccc21)CC(=O)c1ccc(Cl)cc1 [Lofepramine]	1.16 ± 0.21	0.819 ± 0.057	0.719 ± 0.23	1.02 ± 0.092	0.877 ± 0.21	0.943 ± 0.11
Nc1ccn([C@@H]2CS[C@H](CO)O2)c(=O)n1 [Lamivudine]	1.15 ± 0.032	1.15 ± 0.13	0.805 ± 0.25	0.541 ± 0.12	1.1 ± 0.45	0.909 ± 0.17
CS(=O)(=O)c1ccc(C2=C(c3ccccc3)C(=O)OC2)cc1 [Rofecoxib]	1.24 ± 0.15	1.23 ± 0.099	0.469 ± 0.1	0.956 ± 0.066	0.997 ± 0.57	1.05 ± 0.033
Cc1ccnc2c1NC(=O)c1cccnc1N2C1CC1 [Nevirapine]	1.73 ± 0.14	1.3 ± 0.09	3.04 ± 1.9	2.55 ± 0.61	1.57 ± 0.31	1.18 ± 0.074
NCC(O)c1ccc(O)c(O)c1 (racemic) [(+/-)-Norepinephrine hydrochloride]	1.22 ± 0.2	1.39 ± 0.26	0.881 ± 0.26	0.512 ± 0.081	1.17 ± 0.3	1.24 ± 0.075
Cc1nccn1CC1CCc2c(c3ccccc3n2C)C1=O (stereo not drawn) [Ondansetron]	1.47 ± 0.081	1.19 ± 0.12	0.936 ± 0.35	0.675 ± 0.33	0.833 ± 0.044	1.24 ± 0.24
C[C@]12CC[C@@H]3c4ccc(O)cc4CC[C@H]3[C@@H]1CC[C@@H]2O [Beta-estradiol]	1.09 ± 0.25	0.702 ± 0.087	0.59 ± 0.62	1.01 ± 0.12	1.36 ± 0.49	1.87 ± 0.41
C[C@@H]1C[C@H]2[C@@H]3CCC4=CC(=O)C=C[C@]4(C)[C@@]3(F)[C@@H](O)C[C@]2(C)[C@@]1(O)C(=O)CO [Dexamethasone]	1.36 ± 0.3	1.31 ± 0.077	28.2 ± 3.1	5.58 ± 1	2.06 ± 0.33	1.93 ± 0.29
CC1=C(C/C=C(\C)CCC[C@H](C)CCC[C@H](C)CCCC(C)C)C(=O)c2ccccc2C1=O [Phylloquinone]	1.38 ± 0.18	1.51 ± 0.094	0.716 ± 0.51	0.749 ± 0.24	0.64 ± 0.14	0.544 ± 0.1
CC(C)OC(=O)CCC/C=C\C[C@@H]1[C@@H](CC[C@@H](O)CCc2ccccc2)[C@H](O)C[C@@H]1O [Latanoprost]	1.75 ± 0.13	1.49 ± 0.056	0.271 ± 0.054	0.885 ± 0.38	0.189 ± 0.21	0.365 ± 0.046
Cc1cccc(C)c1OCC(C)N (stereo not drawn) [Mexiletine hydrochloride]	1.09 ± 0.012	1.21 ± 0.1	3.54 ± 0.3	1.48 ± 0.49	1.36 ± 0.73	1.37 ± 0.32
Cc1cc2c(s1)Nc1ccccc1N=C2N1CCN(C)CC1 [Olanzapine]	1.61 ± 0.25	1.06 ± 0.11	0.62 ± 0.33	0.853 ± 0.25	1.11 ± 0.079	0.773 ± 0.16

Structure (SMILES)	Hoechst total cell count ratio (hAMSC donor 1 [1])	Hoechst total cell count ratio (hAMSC donor 2 [2])	transgenic luciferase activity (hAMSC donor 1 [3])	transgenic luciferase activity (hAMSC donor 2 [4])	transfection efficiency (hAMSC donor 1 [5])	transfection efficiency (hAMSC donor 2 [6])
CC(=O)[C@H]1CC[C@H]2[C@@H]3CCC4=CC(=O)CC[C@]4(C)[C@H]3CC[C@]12C [Progesterone]	1.11 ± 0.11	1.07 ± 0.12	0.292 ± 0.037	0.424 ± 0.17	0.78 ± 0.12	0.937 ± 0.19
CCN(CC)CCOc1ccc(C(=C(Cl)c2ccccc2)c2ccccc2)cc1 [Clomifene citrate]	0.0627 ± 0.034	0.106 ± 0.071	0.00379 ± 0.0021	0.000956 ± 0.00022	0.694 ± 0.5	0
CN(C)CC/C=C1/c2ccccc2COc2ccc(CC(=O)O)cc21 [Olopatadine hydrochloride]	1.29 ± 0.26	1.48 ± 0.4	0.526 ± 0.13	1 ± 0.16	1.05 ± 0.41	0.875 ± 0.15
CC(C)NCC(O)c1cc(O)cc(O)c1 (stereo not drawn) [Metaproterenol]	1.56 ± 0.057	1.18 ± 0.2	0.318 ± 0.1	0.134 ± 0.0062	1.07 ± 0.14	1.12 ± 0.18
NC[C@H]1CC[C@H](C(=O)Oc2ccc(CCC(=O)O)cc2)CC1 [Cetraxate hydrochloride]	1.12 ± 0.085	1.2 ± 0.025	0.506 ± 0.12	0.824 ± 0.22	0.92 ± 0.2	1.07 ± 0.11
CCOC(=O)OC(C)OC1=C(C(=O)Nc2ccccn2)N(C)S(=O)(=O)c2ccccc21 (stereo not drawn) [Ampiroxicam]	1.48 ± 0.26	1.15 ± 0.082	0.836 ± 0.12	0.577 ± 0.081	1.16 ± 0.16	0.543 ± 0.0058
CN1CC(=O)N2[C@H](c3ccc4c(c3)OCO4)c3[nH]c4ccccc4c3C[C@@H]2C1=O [Tadalafil]	1.39 ± 0.09	1.32 ± 0.12	2.79 ± 1.2	1.79 ± 0.23	1.42 ± 0.3	1.17 ± 0.16
O=C(NCCO[N+](=O)[O-])c1cccnc1 [Nicorandil]	1.64 ± 0.42	0.972 ± 0.056	0.556 ± 0.098	0.778 ± 0.14	1.04 ± 0.26	1.4 ± 0.15
COc1ccc2c(c1)c(CC(=O)O)c(C)n2C(=O)c1ccc(Cl)cc1 [Indomethacin hydrate]	1.39 ± 0.1	1.21 ± 0.093	0.843 ± 0.32	0.734 ± 0.14	0.813 ± 0.17	0.966 ± 0.27
COc1ccc(-c2cc(=O)c3c(OC)c(OC)c(OC)c(OC)c3o2)cc1OC [Nobiletin]	1.29 ± 0.016	2.588 ± 0.016	1.06 ± 0.25	0.856 ± 0.25	0.85 ± 0.17	0.742 ± 0.14
CC(C)c1ccc2oc3nc(N)c(C(=O)O)cc3c(=O)c2c1 [Amlexanox]	1.54 ± 0.084	1.12 ± 0.068	2.99 ± 1.9	3.47 ± 0.78	1.31 ± 0.31	1.59 ± 0.19
Cc1[nH]cnc1CN1CCc2c(c3ccccc3n2C)C1=O [Alosetron monohydrochloride]	1.12 ± 0.042	1.16 ± 0.017	0.198 ± 0.033	0.628 ± 0.093	0.894 ± 0.15	1.01 ± 0.28
CN1CCN(C2=Nc3cc(F)ccc3Cc3ccccc32)CC1 [Fluperlapine]	0.997 ± 0.14	0.852 ± 0.041	0.206 ± 0.16	0.577 ± 0.087	1.26 ± 0.33	0.873 ± 0.16
C[C@H](N[C@@H](CCc1ccccc1)C(=O)O)C(=O)N1CCC[C@H]1C(=O)O [Enalaprilat]	1.8 ± 0.075	1.19 ± 0.067	1.1 ± 0.52	1.01 ± 0.18	0.933 ± 0.085	0.62 ± 0.076
CC1(C)O[C@@H]2[C@@H](CO[C@@]3(COS(N)(=O)=O)OC(C)(C)O[C@@H]23)O1 [Topiramate]	1.31 ± 0.18	1.33 ± 0.16	1.63 ± 0.8	1.04 ± 0.2	0.936 ± 0.2	1.01 ± 0.016
CCCCC(=O)N(Cc1ccc(-c2ccccc2-c2nnn[nH]2)cc1)[C@H](C(=O)O)C(C)C [Valsartan]	1.77 ± 0.13	1.16 ± 0.051	0.262 ± 0.072	0.635 ± 0.12	0.844 ± 0.14	1.13 ± 0.075
CN(C)c1ccc(O)c2c1C[C@H]1C[C@H]3[C@H](N(C)C)C(O)=C(C(N)=O)C(=O)[C@@]3(O)C(O)=C1C2=O [Minocycline hydrochloride]	1.01 ± 0.14	0.98 ± 0.15	1.57 ± 0.42	0.759 ± 0.059	1.54 ± 0.39	1.02 ± 0.12
CC(=O)O[C@]1(C(C)=O)CC[C@H]2[C@@H]3C=C(C)C4=CC(=O)CC[C@]4(C)[C@H]3CC[C@@]21C [Megestrol acetate]	1.57 ± 0.21	0.927 ± 0.2	1.38 ± 0.73	2.69 ± 0.26	2.57 ± 2.2	2.69 ± 1.5
Cc1ccc(O)c([C@H](CCN(C(C)C)C(C)C)c2ccccc2)c1 [Tolterodine tartrate]	1.26 ± 0.19	0.938 ± 0.061	0.552 ± 0.23	0.782 ± 0.57	1.12 ± 0.21	1.07 ± 0.029
N[C@@H](C(=O)N[C@@H]1C(=O)N2C(C(=O)O)=C(CSc3cn[nH]n3)CS[C@H]12)c1ccc(O)cc1 [Cefatrizine propylene glycol]	1.33 ± 0.16	1.17 ± 0.072	0.822 ± 0.36	0.662 ± 0.14	1.37 ± 0.26	0.739 ± 0.12
Cc1cc(NS(=O)(=O)c2ccc(N)cc2)no1 [Sulfamethoxazole]	1.26 ± 0.078	1.56 ± 0.24	0.656 ± 0.55	0.389 ± 0.15	1.05 ± 0.054	1.05 ± 0.16
